The list shows a part of the results. Read counts after selection give these values, which scatter widely.
system: Drosophila AGO1 (endogenous, S2-R+ lysate); experiment: AGO1 loading enrichment factor (IP read count / input read count, not library-size normalised) (ratio); higher = more efficient loading into AGO1; settings: randomized region: 5' 5N of miR-317 loop
Experimental: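 HISSA: 5'-phosphorylated, 32P-labelled 20-nt ssRNA oligos (miR-317 loop, first 5 nt randomized, constant 3' part TGAAATGCAAGCAAG as printed in methods; DNA letters for RNA) incubated 1 h at 25°C in S2-R+ cell lysate. Endogenous AGO1 was immunopurified with anti-AGO1 and bound oligos were sequenced after splinted ligation.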
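Note: S2-R+ lysate came from cells stably expressing FLAG-tagged AGO2, enrichment per 5N variant computed with FASTAptamer, reads lacking the constant 3′ segment discarded.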

Sequence	AGO1 loading enrichment factor
ATGCTTGAAATGCAAGCAAG	0.272
CTGGGTGAAATGCAAGCAAG	0.238
GCAGGTGAAATGCAAGCAAG	0.041
CCTTGTGAAATGCAAGCAAG	0.0109
ATCCTTGAAATGCAAGCAAG	0.0418
GAGCGTGAAATGCAAGCAAG	0.107
GCGGGTGAAATGCAAGCAAG	0.231
CGTAATGAAATGCAAGCAAG	0.0961
TATCTTGAAATGCAAGCAAG	0.676
ATAGTTGAAATGCAAGCAAG	0.215
CCATGTGAAATGCAAGCAAG	0.0907
ATATCTGAAATGCAAGCAAG	0.136
CCACATGAAATGCAAGCAAG	0.0436
CTGACTGAAATGCAAGCAAG	0.152
GTTGATGAAATGCAAGCAAG	0.119
AGTTTTGAAATGCAAGCAAG	0.0932
TAGCTTGAAATGCAAGCAAG	0.881
ACTGATGAAATGCAAGCAAG	0.209
TATTATGAAATGCAAGCAAG	0.343
CTTGTTGAAATGCAAGCAAG	0.00846
AAGTATGAAATGCAAGCAAG	0.124
CTGTCTGAAATGCAAGCAAG	0.29
GAAGCTGAAATGCAAGCAAG	0.0371
TGTGTTGAAATGCAAGCAAG	0.1
CGCCGTGAAATGCAAGCAAG	0.0762

Sequence	AGO1 loading enrichment factor
AGTGCTGAAATGCAAGCAAG	0.042
GACGATGAAATGCAAGCAAG	19.5
TCTGTTGAAATGCAAGCAAG	0.564
AGGTGTGAAATGCAAGCAAG	0.323
GAGTTTGAAATGCAAGCAAG	0.0989
CAGAGTGAAATGCAAGCAAG	0.168
TGAGATGAAATGCAAGCAAG	0.137
GTGATTGAAATGCAAGCAAG	0.236
ACTCCTGAAATGCAAGCAAG	0.559
GGTGATGAAATGCAAGCAAG	1.02
CAGCTTGAAATGCAAGCAAG	0
ACCACTGAAATGCAAGCAAG	0.0688
ATCTGTGAAATGCAAGCAAG	0.141
TTCTATGAAATGCAAGCAAG	0.268
CTGTGTGAAATGCAAGCAAG	0.00624
AGCTTTGAAATGCAAGCAAG	0.0714
AGATCTGAAATGCAAGCAAG	0.123
AACTTTGAAATGCAAGCAAG	0.115
TCTTGTGAAATGCAAGCAAG	0.491
GATTCTGAAATGCAAGCAAG	0.176
GTGTTTGAAATGCAAGCAAG	0.0268
TTAAGTGAAATGCAAGCAAG	0.324
GTCAATGAAATGCAAGCAAG	0.165
ATCCGTGAAATGCAAGCAAG	0.185
TGGTTTGAAATGCAAGCAAG	0.0783

Sequence	AGO1 loading enrichment factor
CCAGATGAAATGCAAGCAAG	0.139
AACTGTGAAATGCAAGCAAG	0.11
AAGCTTGAAATGCAAGCAAG	0.00617
CGCGGTGAAATGCAAGCAAG	0.104
CGCGATGAAATGCAAGCAAG	0.472
TTAGTTGAAATGCAAGCAAG	0.148
TGGGCTGAAATGCAAGCAAG	0.0708
GAGACTGAAATGCAAGCAAG	0.33
ATACGTGAAATGCAAGCAAG	0.138
GTTTGTGAAATGCAAGCAAG	0.0502
CTTTATGAAATGCAAGCAAG	0.171
CTCGTTGAAATGCAAGCAAG	0.0731
CAAAATGAAATGCAAGCAAG	0.152
TGGCCTGAAATGCAAGCAAG	0.282
ACGCGTGAAATGCAAGCAAG	0.0924
TAGTTTGAAATGCAAGCAAG	0.145
TCCCGTGAAATGCAAGCAAG	0.469
CGTTTTGAAATGCAAGCAAG	0.0844
CTATCTGAAATGCAAGCAAG	0.128
ATCCATGAAATGCAAGCAAG	0.253
CATTCTGAAATGCAAGCAAG	0.00507
CACTTTGAAATGCAAGCAAG	0.0612
GTCTGTGAAATGCAAGCAAG	0.0124
ACGTTTGAAATGCAAGCAAG	0.0363
ATAGATGAAATGCAAGCAAG	0.128

Sequence	AGO1 loading enrichment factor
ACGCCTGAAATGCAAGCAAG	0.185
CGGATTGAAATGCAAGCAAG	0.14
CTTGATGAAATGCAAGCAAG	0.00743
TAAGATGAAATGCAAGCAAG	0.327
CTCACTGAAATGCAAGCAAG	0.118
CTAGTTGAAATGCAAGCAAG	0.0481
AAACGTGAAATGCAAGCAAG	0.148
GGACTTGAAATGCAAGCAAG	0.095
TACACTGAAATGCAAGCAAG	0.487
CCACTTGAAATGCAAGCAAG	0.00328
AGACATGAAATGCAAGCAAG	0.401
CGATCTGAAATGCAAGCAAG	0.034
CAGCGTGAAATGCAAGCAAG	0.102
CAGTATGAAATGCAAGCAAG	0.072
GCAGTTGAAATGCAAGCAAG	0.038
GACTATGAAATGCAAGCAAG	2.2
TCGAATGAAATGCAAGCAAG	0.59
ATGCCTGAAATGCAAGCAAG	0.442
TTTCGTGAAATGCAAGCAAG	0.55
AAGGTTGAAATGCAAGCAAG	0.121
CTTCGTGAAATGCAAGCAAG	0.00566
ATTGGTGAAATGCAAGCAAG	0.232
GCAGCTGAAATGCAAGCAAG	0.0124
GTGGATGAAATGCAAGCAAG	0.831
CTCTCTGAAATGCAAGCAAG	0.0241

Sequence	AGO1 loading enrichment factor
TTAACTGAAATGCAAGCAAG	0.248
TGCGGTGAAATGCAAGCAAG	0.0635
ACGGGTGAAATGCAAGCAAG	0.451
AATGTTGAAATGCAAGCAAG	0.12
GAATGTGAAATGCAAGCAAG	0.084
TGAGTTGAAATGCAAGCAAG	0.172
GGCTGTGAAATGCAAGCAAG	0.125
ACATGTGAAATGCAAGCAAG	0.0755
TCCTGTGAAATGCAAGCAAG	0.212
CTGATTGAAATGCAAGCAAG	0.102
TATAATGAAATGCAAGCAAG	0.441
GAGCATGAAATGCAAGCAAG	0.0843
AACGTTGAAATGCAAGCAAG	0.121
ATTCTTGAAATGCAAGCAAG	0.251
AACCTTGAAATGCAAGCAAG	0.151
TGATTTGAAATGCAAGCAAG	0.0792
ATACTTGAAATGCAAGCAAG	0.125
GCGGTTGAAATGCAAGCAAG	0.655
GCCAGTGAAATGCAAGCAAG	0.0843
GCGATTGAAATGCAAGCAAG	1.19
TTGATTGAAATGCAAGCAAG	1.2
CCCGATGAAATGCAAGCAAG	0.0923
GGTTTTGAAATGCAAGCAAG	0.142
GACAATGAAATGCAAGCAAG	5.52
GGCGTTGAAATGCAAGCAAG	0.184

Sequence	AGO1 loading enrichment factor
ACTGTTGAAATGCAAGCAAG	0.182
CTGGCTGAAATGCAAGCAAG	0.0291
TCGACTGAAATGCAAGCAAG	0.976
AGTCCTGAAATGCAAGCAAG	0.106
CATAGTGAAATGCAAGCAAG	0.0631
CGGTGTGAAATGCAAGCAAG	0.172
CCTCTTGAAATGCAAGCAAG	0.00541
GTCGATGAAATGCAAGCAAG	1.66
TGTTTTGAAATGCAAGCAAG	0.153
CGGAGTGAAATGCAAGCAAG	0.283
ACTGCTGAAATGCAAGCAAG	0.0773
AACCCTGAAATGCAAGCAAG	0.636
AAAACTGAAATGCAAGCAAG	0.141
GTACCTGAAATGCAAGCAAG	0.506
GACACTGAAATGCAAGCAAG	3.27
AAGCGTGAAATGCAAGCAAG	0.12
GGTAATGAAATGCAAGCAAG	0.123
GAGATTGAAATGCAAGCAAG	0.169
GACCCTGAAATGCAAGCAAG	0.575
ATGAGTGAAATGCAAGCAAG	0.209
CTCGATGAAATGCAAGCAAG	0.0678
AATATTGAAATGCAAGCAAG	0.149
AAACATGAAATGCAAGCAAG	0.103
CGGAATGAAATGCAAGCAAG	0.119
TAGCATGAAATGCAAGCAAG	0.454

Sequence	AGO1 loading enrichment factor
GATCGTGAAATGCAAGCAAG	0.109
CGGGCTGAAATGCAAGCAAG	0.0521
AGAAGTGAAATGCAAGCAAG	0.115
CTTTCTGAAATGCAAGCAAG	0.00607
TGTAGTGAAATGCAAGCAAG	0.0757
AGACGTGAAATGCAAGCAAG	1.02
TCAATTGAAATGCAAGCAAG	0.27
ACGCATGAAATGCAAGCAAG	0.111
TGGCGTGAAATGCAAGCAAG	0.109
TCTGCTGAAATGCAAGCAAG	1.62
TTATATGAAATGCAAGCAAG	0.216
AAGTTTGAAATGCAAGCAAG	0.0995
AGAAATGAAATGCAAGCAAG	0.094
TCGGATGAAATGCAAGCAAG	0.339
TGCGCTGAAATGCAAGCAAG	0.0471
CACGGTGAAATGCAAGCAAG	0.177
AGGAGTGAAATGCAAGCAAG	0.378
ACGGTTGAAATGCAAGCAAG	0.161
GTTTTTGAAATGCAAGCAAG	0.0496
CTCTATGAAATGCAAGCAAG	0.39
TCGGTTGAAATGCAAGCAAG	0.135
GAGCCTGAAATGCAAGCAAG	0.101
TAACATGAAATGCAAGCAAG	0.619
GGCCTTGAAATGCAAGCAAG	0.086
CGCGCTGAAATGCAAGCAAG	0.0124

Sequence	AGO1 loading enrichment factor
TTGCATGAAATGCAAGCAAG	1.05
CATGGTGAAATGCAAGCAAG	0.0568
TTGCCTGAAATGCAAGCAAG	0.933
CGTAGTGAAATGCAAGCAAG	0.0527
CTGGATGAAATGCAAGCAAG	0.155
GGGCCTGAAATGCAAGCAAG	0.259
CGTCATGAAATGCAAGCAAG	0.0869
CTGCATGAAATGCAAGCAAG	0.0284
GCAAATGAAATGCAAGCAAG	0.0677
GGTATTGAAATGCAAGCAAG	0.0436
CCTTCTGAAATGCAAGCAAG	0.0703
CTTAATGAAATGCAAGCAAG	0.0452
GTCTATGAAATGCAAGCAAG	0.0855
GTTCCTGAAATGCAAGCAAG	0.31
GGGGTTGAAATGCAAGCAAG	1.91
CACATTGAAATGCAAGCAAG	0.122
AATTGTGAAATGCAAGCAAG	0.143
ACAAATGAAATGCAAGCAAG	0.222
GTGCATGAAATGCAAGCAAG	0.0762
CTAGGTGAAATGCAAGCAAG	0.0479
CTCCATGAAATGCAAGCAAG	0.0481
CGAGATGAAATGCAAGCAAG	0.172

From the supplement of paper PMC6451100
